# Data: PubChem BioAssay (Tox21)
# Several values for one entry are separate records, joined by “and”; a condition that tells them apart may be missing. Identical values can stand only once. Inconclusive results, whose numbers are uncertain, are shown with a selection of clear calls. For some of these results: Where the call is inconclusive, the potency comes from a doubtful curve fit. More than one record can exist for a structure, and the calls need not agree. Activity calls are given as the source filed them. The call rests on the fitted dose curve; in most records, active means well fitted curve in the direction sought with a large enough effect in the repeat runs; inconclusive means weak or mixed curves; inactive means no such curve, though single readings can be large; an effect the other way counts as inactive or inconclusive.
# Assays:
# [1] = Human pregnane X receptor (PXR) small molecule agonists, qHTS cell viability counter screen (AID 1346977); further: nearly all actives have a fitted effect of over 50% in size
# Outline: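 PXR-Luc HepG2 cells in medium with 5% charcoal-stripped FBS were pre-incubated 5hr, then exposed to compounds for 24hr at 37C. Viability was read in the same wells by CellTiter-Fluor fluorescence, reagent added after 23hr with a 1hr incubation.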
# [2] = Caspase-3/7 induction in HepG2 cells by small molecules, qHTS assay (AID 1346978); further: nearly all actives have a fitted effect of over 15% in size
# Outline: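 Wild-type HepG2 cells (2,000/well) were settled 5 h at 37 C, 5% CO2, then exposed to compounds in DMSO for 17 h. Caspase-3/7 activity was read by luminescence 30 min after adding Caspase-Glo 3/7 reagent at room temperature.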
# [3] = Caspase-3/7 induction in HepG2 cells by small molecules, qHTS cell viability counter screen (AID 1346981); further: nearly all actives have a fitted effect of over 30% in size
# Outline: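 Wild-type HepG2 cells (2,000/well) were allowed to settle for 5 hr at 37 C, 5% CO2, then dosed with compounds in DMSO by pin transfer. After 16 hr at 37 C, CellTiter-Fluor was added and fluorescence read 1 hr later.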
# [4] = target: Cytochrome P450 2C9 (Homo sapiens) (UniProt P11712); assay: Cytochrome P450 Family 2 Subfamily C Member 9 (CYP2C9) small molecule antagonists: luciferase reporter qHTS assay (AID 1671198); further: nearly all actives have a fitted effect of over 50% in size
# Sequence of UniProt P11712 (P11712 whole entry, looked up): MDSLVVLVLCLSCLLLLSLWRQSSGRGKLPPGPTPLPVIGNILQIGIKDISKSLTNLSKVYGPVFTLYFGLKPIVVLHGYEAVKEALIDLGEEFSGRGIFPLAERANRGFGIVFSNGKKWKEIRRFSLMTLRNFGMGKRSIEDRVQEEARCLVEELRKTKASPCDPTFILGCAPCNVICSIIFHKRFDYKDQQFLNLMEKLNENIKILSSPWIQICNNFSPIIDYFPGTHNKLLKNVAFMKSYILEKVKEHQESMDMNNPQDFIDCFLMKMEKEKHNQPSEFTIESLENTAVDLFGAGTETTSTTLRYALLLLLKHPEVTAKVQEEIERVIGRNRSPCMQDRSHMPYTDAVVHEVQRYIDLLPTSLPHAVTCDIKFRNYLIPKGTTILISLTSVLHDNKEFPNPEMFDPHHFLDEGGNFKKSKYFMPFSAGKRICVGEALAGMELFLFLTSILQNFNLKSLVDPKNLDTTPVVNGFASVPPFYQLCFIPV
# Outline: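 CYP2C9 activity was measured with a P450-Glo proluciferin substrate. Enzyme–substrate mix was held with compound for 10 min at room temperature, then NADPH regeneration solution was added for 1 h at 37C. Luciferin product was read as luminescence.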
# [5] = Caspase-3/7 induction in CHO-K1 cells by small molecules, qHTS cell viability counter screen (AID 1346979); further: nearly all actives have a fitted effect of over 35% in size
# Outline: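 Wild-type CHO-K1 cells were seeded at 1,500 per well, rested 5hr at 37 C, then exposed to compounds in DMSO. After 16hr, CellTiter-Fluor reagent was added and fluorescence read 1hr later as the viability measure.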
# [6] = Caspase-3/7 induction in CHO-K1 cells by small molecules, qHTS assay (AID 1346980); further: nearly all actives have a fitted effect of over 15% in size
# Outline: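 Wild-type cells were seeded at 1,500 per well and settled 5 hr at 37 C, 5% CO2, then exposed to DMSO-dissolved compounds for 17 hr. Caspase-Glo 3/7 reagent was added, and luminescence was read after 30min at room temperature.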
# [7] = target: Cytochrome P450 2C19 (Homo sapiens) (UniProt P33261); assay: Cytochrome P450 Family 2 Subfamily C Member 19 (CYP2C19) small molecule antagonists: luciferase reporter qHTS assay (AID 1671197); further: nearly all actives have a fitted effect of over 65% in size
# Sequence of UniProt P33261 (P33261 whole entry, looked up): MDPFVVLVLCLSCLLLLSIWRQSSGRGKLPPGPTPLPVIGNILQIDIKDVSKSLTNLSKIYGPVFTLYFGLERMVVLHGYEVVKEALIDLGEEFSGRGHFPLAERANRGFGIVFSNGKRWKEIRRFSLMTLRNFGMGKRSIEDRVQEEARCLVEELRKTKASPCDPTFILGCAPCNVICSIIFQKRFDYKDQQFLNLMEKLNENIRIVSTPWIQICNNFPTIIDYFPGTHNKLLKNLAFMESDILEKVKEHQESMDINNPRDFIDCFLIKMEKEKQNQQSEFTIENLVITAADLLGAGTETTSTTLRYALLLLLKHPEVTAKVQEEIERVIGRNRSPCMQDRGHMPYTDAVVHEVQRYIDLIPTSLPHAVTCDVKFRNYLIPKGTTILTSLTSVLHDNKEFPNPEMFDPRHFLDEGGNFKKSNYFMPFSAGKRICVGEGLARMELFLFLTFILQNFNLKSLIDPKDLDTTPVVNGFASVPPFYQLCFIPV
# Outline: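 CYP2C19 P450-Glo, 1536-well qHTS. Cpd + enzyme/proluciferin substrate 10 min RT; + NADPH regen, 37C 1 h; stop with luciferin detection reagent, 20 min RT, luminescence (RLU). Pos ctrl ketoconazole.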
# [8] = target: Cytochrome P450 2D6 (Homo sapiens) (UniProt P10635); assay: Cytochrome P450 Family 2 Subfamily D Member 6 (CYP2D6) small molecule antagonists: luciferase reporter qHTS assay (AID 1671196); further: nearly all actives have a fitted effect of over 50% in size
# Sequence of UniProt P10635 (P10635 whole entry, looked up): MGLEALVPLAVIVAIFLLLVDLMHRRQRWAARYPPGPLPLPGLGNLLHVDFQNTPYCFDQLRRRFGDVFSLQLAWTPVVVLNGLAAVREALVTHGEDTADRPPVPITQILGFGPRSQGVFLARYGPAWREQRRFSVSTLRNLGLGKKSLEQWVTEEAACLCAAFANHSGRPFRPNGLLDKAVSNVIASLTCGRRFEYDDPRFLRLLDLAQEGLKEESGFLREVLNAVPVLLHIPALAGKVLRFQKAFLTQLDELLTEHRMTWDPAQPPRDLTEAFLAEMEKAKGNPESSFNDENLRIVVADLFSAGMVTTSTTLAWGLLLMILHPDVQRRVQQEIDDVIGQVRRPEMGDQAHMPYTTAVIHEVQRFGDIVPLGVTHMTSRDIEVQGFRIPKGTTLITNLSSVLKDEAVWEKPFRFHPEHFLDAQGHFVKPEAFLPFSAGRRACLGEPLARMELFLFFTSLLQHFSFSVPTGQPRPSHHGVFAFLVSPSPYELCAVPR
# Outline: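 CYP2D6 enzyme–substrate mix was held with compound for 10 min at room temperature, then NADPH regeneration solution was added and the reaction ran 1 h at room temperature. Luciferin product was detected by luminescence after 20 min with detection reagent.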
# [9] = target: Cytochrome P450 1A2 (Homo sapiens) (UniProt P05177); assay: Cytochrome P450 Family 1 Subfamily A Member 2 (CYP1A2) small molecule antagonists: luciferase reporter qHTS assay (AID 1671199); further: nearly all actives have a fitted effect of over 50% in size
# Sequence of UniProt P05177 (P05177 whole entry, looked up): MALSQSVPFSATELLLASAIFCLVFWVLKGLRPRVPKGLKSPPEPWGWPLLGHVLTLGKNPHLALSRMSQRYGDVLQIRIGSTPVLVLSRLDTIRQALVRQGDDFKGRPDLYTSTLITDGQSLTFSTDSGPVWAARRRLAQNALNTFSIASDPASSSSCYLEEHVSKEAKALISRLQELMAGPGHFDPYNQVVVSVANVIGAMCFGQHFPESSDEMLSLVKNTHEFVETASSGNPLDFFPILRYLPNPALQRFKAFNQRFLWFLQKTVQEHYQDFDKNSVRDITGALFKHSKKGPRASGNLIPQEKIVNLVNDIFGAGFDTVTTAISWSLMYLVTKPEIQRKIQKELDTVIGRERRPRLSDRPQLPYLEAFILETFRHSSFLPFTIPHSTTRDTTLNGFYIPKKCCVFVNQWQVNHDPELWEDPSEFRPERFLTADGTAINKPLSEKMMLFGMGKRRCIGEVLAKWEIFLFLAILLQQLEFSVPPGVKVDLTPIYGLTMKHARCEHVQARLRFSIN
# Outline: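 Human CYP1A2 activity measured with a P450-Glo proluciferin substrate; compounds in DMSO preincubated 10 min at room temperature with enzyme-substrate mix, then NADPH regeneration system added for 1 h. Luciferin detection reagent, 20 min, luminescence read.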
# [10] = target: Cytochrome P450 3A4 (Homo sapiens) (UniProt P08684); assay: Cytochrome P450 Family 3 Subfamily A Member 4 (CYP3A4) small molecule antagonists: luciferase reporter qHTS assay (AID 1671201); further: nearly all actives have a fitted effect of over 50% in size
# Sequence of UniProt P08684 (P08684 whole entry, looked up): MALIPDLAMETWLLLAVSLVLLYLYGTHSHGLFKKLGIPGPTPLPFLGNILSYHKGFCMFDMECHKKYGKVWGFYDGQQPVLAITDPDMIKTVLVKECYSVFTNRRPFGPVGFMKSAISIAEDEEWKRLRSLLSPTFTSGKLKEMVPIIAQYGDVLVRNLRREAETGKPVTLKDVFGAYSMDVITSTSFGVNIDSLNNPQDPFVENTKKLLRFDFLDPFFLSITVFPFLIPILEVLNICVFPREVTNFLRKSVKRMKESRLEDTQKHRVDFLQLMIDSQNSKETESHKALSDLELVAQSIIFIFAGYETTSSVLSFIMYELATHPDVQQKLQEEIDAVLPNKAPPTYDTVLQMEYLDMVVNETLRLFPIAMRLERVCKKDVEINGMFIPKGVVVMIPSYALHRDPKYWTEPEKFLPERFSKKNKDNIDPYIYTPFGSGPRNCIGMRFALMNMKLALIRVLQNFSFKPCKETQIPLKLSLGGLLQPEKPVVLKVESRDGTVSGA
# Outline: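 P450-Glo CYP3A4 system with proluciferin substrate; compounds preincubated 10 min RT with enzyme-substrate mix, then NADPH regeneration added for 1 h RT. Detection reagent 20 min, luminescence read as relative luminescence units.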
# [11] = target: Nuclear receptor subfamily 1 group I member 2 (Homo sapiens) (UniProt O75469); assay: Human pregnane X receptor (PXR) activation by small molecules, qHTS assay (AID 1346985); further: nearly all actives have a fitted effect of over 40% in size
# Outline: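 DPX-2 cells (HepG2 co-transfected with a PXR response element and a CYP3A4-promoter luciferase construct) were seeded at 2,000 per well, rested 5 hr at 37C, then exposed to DMSO-dissolved compounds for 24 hr. Activation was read as luciferase luminescence.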
# [12] = target: Voltage-gated inwardly rectifying potassium channel KCNH2 (Homo sapiens) (UniProt Q12809); assay: Human Ether-a-go-go-Related Gene (hERG) channel small molecule antagonists: fluorescence cell-based qHTS assay (AID 1671200); further: nearly all actives have a fitted effect of over 50% in size
# Sequence of UniProt Q12809 (Q12809 whole entry, looked up): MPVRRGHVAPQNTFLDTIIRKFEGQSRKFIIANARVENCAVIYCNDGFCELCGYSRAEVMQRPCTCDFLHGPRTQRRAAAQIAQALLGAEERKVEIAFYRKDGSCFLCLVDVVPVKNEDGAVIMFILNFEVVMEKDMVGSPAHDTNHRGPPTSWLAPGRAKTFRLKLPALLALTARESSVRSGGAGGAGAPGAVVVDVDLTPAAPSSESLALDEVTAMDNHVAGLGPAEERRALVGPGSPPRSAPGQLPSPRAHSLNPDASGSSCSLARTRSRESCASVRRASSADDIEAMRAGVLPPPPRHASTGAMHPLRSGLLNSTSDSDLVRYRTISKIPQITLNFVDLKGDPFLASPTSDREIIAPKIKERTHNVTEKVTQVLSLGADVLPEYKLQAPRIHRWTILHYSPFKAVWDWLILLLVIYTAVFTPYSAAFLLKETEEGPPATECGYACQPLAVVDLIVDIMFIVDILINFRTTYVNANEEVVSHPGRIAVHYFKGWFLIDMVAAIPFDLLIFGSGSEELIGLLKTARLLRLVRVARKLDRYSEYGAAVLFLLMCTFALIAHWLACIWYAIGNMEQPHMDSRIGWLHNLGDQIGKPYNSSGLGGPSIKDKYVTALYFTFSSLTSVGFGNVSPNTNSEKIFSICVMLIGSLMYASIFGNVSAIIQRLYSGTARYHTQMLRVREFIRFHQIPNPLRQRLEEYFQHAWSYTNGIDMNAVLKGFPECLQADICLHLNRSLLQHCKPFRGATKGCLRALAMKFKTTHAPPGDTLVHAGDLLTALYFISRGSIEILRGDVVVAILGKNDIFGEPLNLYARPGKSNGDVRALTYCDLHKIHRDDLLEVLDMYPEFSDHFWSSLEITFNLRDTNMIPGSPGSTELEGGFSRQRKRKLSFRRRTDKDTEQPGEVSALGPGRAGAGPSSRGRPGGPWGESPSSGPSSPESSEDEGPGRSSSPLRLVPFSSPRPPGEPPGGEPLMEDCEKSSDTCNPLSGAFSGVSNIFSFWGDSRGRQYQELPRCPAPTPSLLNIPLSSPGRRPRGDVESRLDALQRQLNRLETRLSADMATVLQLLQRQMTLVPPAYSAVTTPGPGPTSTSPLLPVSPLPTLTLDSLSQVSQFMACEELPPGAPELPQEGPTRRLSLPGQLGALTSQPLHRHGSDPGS
# Outline: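 U2OS cells expressing the channel were plated at 1000 cells/well, incubated overnight at 37 C, then loaded with FluxOR II thallium-sensitive dye for 1 h at room temperature in the dark, with a further 10 min at room temperature before stimulation.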
# Potency means the concentration at half of the fitted maximal effect; tags describe the fitted curve by direction and shape.
smiles,measurement,setting,value
Nc1ccccc1N,Potency,[1],"inconclusive: 1.57 µM [cytotoxic, full curve] and inconclusive: 3.86 µM [cytotoxic, full curve]"
same,Potency,[2],active: 2.22 µM and active: 9.41 µM
same,Potency,[3],"inconclusive: 1.25 µM [cytotoxic, full curve] and active: 15 µM"
same,Potency,[4],"inconclusive: 36.4 µM [inhibitor, partial curve] and inconclusive: 32.6 µM [inhibitor, partial curve]"
Cc1ccc([N+](=O)[O-])c(N)c1,Potency,[1],"inconclusive: 66.9 µM [cytotoxic, single point]"
same,Potency,[5],"inconclusive: 75.1 µM [cytotoxic, single point]"
same,Potency,[3],"inconclusive: 66.9 µM [cytotoxic, partial curve]"
c1cc(C(c2ccc(OCC3CO3)cc2)C(c2ccc(OCC3CO3)cc2)c2ccc(OCC3CO3)cc2)ccc1OCC1CO1 (configuration not stated),Potency,[1],inactive
same,Potency,[5],"inconclusive: 40 µM [cytotoxic, partial curve]"
same,Potency,[6],"active: 28.3 µM and inconclusive: 48.5 µM [activator, partial curve, poor fit]"
same,Potency,[7],active: 104 µM and active: 56.4 µM
CC[C@H]1CN2CCc3cc(OC)c(OC)cc3[C@@H]2C[C@@H]1C[C@H]1NCCc2cc(OC)c(OC)cc21,Potency,[1],active: 24.4 nM and active: 10.6 nM
same,Potency,[2],"inconclusive: 68.8 µM [activator, single point]"
same,Potency,[6],active: 30.7 µM
same,Potency,[3],active: 48.7 nM and active: 16.8 nM
same,Potency,[8],"inconclusive: 12.3 µM [inhibitor, partial curve, poor fit]"
same,Potency,[4],"inconclusive: 45 µM [inhibitor, partial curve]"
same,Potency,[9],"inconclusive: 35.7 µM [inhibitor, partial curve, poor fit]"
CC1CC(C)C(=O)C1=O (configuration not stated),Potency,[1],inactive
same,Potency,[5],"inconclusive: 68.6 µM [rising, partial curve, poor fit]"
C[n+]1c2cc(N)ccc2cc2ccc(N)cc21 (tested in a mixture with another compound),Potency,[1],"inconclusive: 23.7 µM [rising, partial curve]"
same,Potency,[2],active: 9.44 µM
same,Potency,[5],"inconclusive: 23.7 µM [rising, partial curve]"
same,Potency,[3],"inconclusive: 23.7 µM [rising, partial curve]"
same,Potency,[8],active: 15.5 µM
same,Potency,[4],inactive
c1cc(N(CC2CO2)CC2CO2)ccc1OCC1CO1 (configuration not stated),Potency,[1],"inconclusive: 70.8 µM [cytotoxic, single point] and active: 61.1 µM"
same,Potency,[2],"inconclusive: 68.7 µM [activator, single point] and inconclusive: 68.6 µM [activator]"
same,Potency,[5],active: 48.6 µM and active: 27.3 µM
same,Potency,[3],active: 54.5 µM and active: 27.3 µM
same,Potency,[8],"inconclusive: 40 µM [inhibitor, partial curve]"
same,Potency,[7],inactive
same,Potency,[9],"inconclusive: 63.4 µM [inhibitor, partial curve]"
same,Potency,[10],"inconclusive: 35.6 µM [inhibitor, partial curve]"
CN(C)CCC=C1c2ccccc2C=Cc2ccccc21,Potency,[1],active: 13.3 µM
same,Potency,[2],inactive
same,Potency,[11],"inconclusive: 22.4 µM [activator, single point]"
same,Potency,[8],active: 6.17 µM
same,Potency,[4],inactive
same,Potency,[12],"inconclusive: 23.9 µM [inhibitor, partial curve]"
Cc1ccc(C(=O)c2cc(O)c(O)c([N+](=O)[O-])c2)cc1,Potency,[1],"active: 21.7 µM and inconclusive: 29.8 µM [cytotoxic, single point]"
CNS(=O)(=O)c1cc(C(=O)N2CCC(CCN3C4CCC3CC(n3c(C)nc5ccccc53)C4)(c3cccc(F)c3)CC2)c(Cl)cc1F (configuration not stated),Potency,[1],"inconclusive: 15.4 µM [cytotoxic, full curve]"
same,Potency,[2],"inconclusive: 61.1 µM [activator, partial curve]"
same,Potency,[3],active: 13.7 µM
same,Potency,[8],active: 25.2 µM
same,Potency,[7],active: 63.3 µM
same,Potency,[4],active: 17.8 µM
OCCOCCOCCOCCOCCO,Potency,[1],"inconclusive: 50.1 µM [cytotoxic, partial curve]"
CCCCCCCC[P+](CCCCCCCC)(CCCCCCCC)CCCCCCCC,Potency,[1],active: 2.42 µM
same,Potency,[2],"inconclusive: 27.1 µM [activator, single point]"
same,Potency,[4],active: 22.3 µM
same,Potency,[12],active: 0.154 µM
